# Laboratory results reported in the supplement of paper PMC12217912.
# The other results are listed elsewhere or left out. The full chains were built here from the parent and the listed change. Inactive controls read about 0.05.
# B1: TEV protease; numbered along this chain (parent)
# chain: MGESLFKGPRDYNPISSSICHLTNESDGHTTSLYGIGFGPFIITNKHLFRRNNGTLVVQSLHGVFKVKDTTTLQQHLVDGRDMIIIRMPKDFPPFPQKLKFREPQREERICLVTTNFQTKSMSSMVSDTSCTFPSGDGIFWKHWIQTKDGQCGSPLVSTRDGFIVGIHSASNFTNTNNYFTSVPKNFMELLTNQEAQQWVSGWRLNADSVLWGGHKVFMVKPEEPFQPVKEATQL
# Variants of: B1
# Experiment: raw area under fraction-flipped curve 0-4 h after induction (AUC4h, not background-subtracted), DNA-recorder readout of cleavage of the substrate (dimensionless); higher = more cleavage of the substrate by the protease variant
# Conditions: temperature: 34 °C; time window: 0-4 h after rhamnose induction
# Protocol: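 In vivo DNA recorder in E. coli TOP10(DE3) ΔrhaA at 34 °C. Each TEVp single-site mutant (parent TEVp 0) is paired with a single-site variant of the 7-mer TEVs (canonical ENLYFQ|S). The substrate sits between flexible linkers in a Bxb1-sfGFP-TEVs-SsrA fusion, so cleavage stabilises Bxb1 and speeds flipping of a recombination array, read by NGS. The value is the raw area under the fraction-flipped curve over 0-4 h after rhamnose induction (AUC4h), with ≥20 reads per time point. It is not background-subtracted; inactive controls average about 0.047.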
# 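Also: Bxb1 expression induced with 0.2% (w/v) L-rhamnose at OD600 near 0.5, cultures sampled hourly, flipped fraction per protease–substrate barcode pair counted by paired-end Illumina sequencing.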
Variant,area with substrate EALYFQS,area with substrate ECLYFQS,area with substrate EDLYFQS,area with substrate EELYFQS,area with substrate EFLYFQS,area with substrate EGLYFQS,area with substrate EILYFQS,area with substrate ELLYFQS,area with substrate EQLYFQS,area with substrate ESLYFQS,area with substrate EVLYFQS,area with substrate EWLYFQS,area with substrate EHLYFQS,area with substrate EKLYFQS,area with substrate EMLYFQS,area with substrate EPLYFQS,area with substrate ERLYFQS,area with substrate ETLYFQS,area with substrate EYLYFQS
MGESLFKGPRDYNPISSSICHLTNESDGHTTSLYGIGFGPFIITNKHLFRRNNGTLVVQSLHGVFKVKDTTTLQQHLVDGRDMIIIRMPKDFSPFPQKLKFREPQREERICLVTTNFQTKSMSSMVSDTSCTFPSGDGIFWKHWIQTKDGQCGSPLVSTRDGFIVGIHSASNFTNTNNYFTSVPKNFMELLTNQEAQQWVSGWRLNADSVLWGGHKVFMVKPEEPFQPVKEATQL [P93S],0.101,0.108,0.0996,0.141,0.0918,0.104,0.0685,0.091,0.0999,0.118,0.0784,0.0983,,,,,,,
MGESLFKGPRDYNPISSSICHLTNESDGHTTSLYGIGFGPFIITNKHLFRRWNGTLVVQSLHGVFKVKDTTTLQQHLVDGRDMIIIRMPKDFPPFPQKLKFREPQREERICLVTTNFQTKSMSSMVSDTSCTFPSGDGIFWKHWIQTKDGQCGSPLVSTRDGFIVGIHSASNFTNTNNYFTSVPKNFMELLTNQEAQQWVSGWRLNADSVLWGGHKVFMVKPEEPFQPVKEATQL [N52W],0.063,0.0688,0.0809,0.0755,0.0664,0.0779,0.0578,0.0652,0.0962,0.0708,0.076,0.0611,0.0699,0.0662,0.0698,0.0819,0.0283,0.0665,0.0632
MGESLFKGPRDYNPISSSICHLTNESDGHTTSLYGIGFGPFIITNKHLFRRNNGTLVVQSLHGVFKVKDTTTLQQHLVDGRDMIIIRMPKDFPPFPQKLKFREPQREERICFVTTNFQTKSMSSMVSDTSCTFPSGDGIFWKHWIQTKDGQCGSPLVSTRDGFIVGIHSASNFTNTNNYFTSVPKNFMELLTNQEAQQWVSGWRLNADSVLWGGHKVFMVKPEEPFQPVKEATQL [L112F],0.104,0.096,0.128,0.102,0.0916,0.0823,0.0907,0.0631,0.0861,0.108,0.0854,,0.0902,0.112,,0.117,0.12,0.0939,0.105
MGESLFKGPRDYNPISSSICHLTNESDGHTTSLYGIGFGPFIIANKHLFRRNNGTLVVQSLHGVFKVKDTTTLQQHLVDGRDMIIIRMPKDFPPFPQKLKFREPQREERICLVTTNFQTKSMSSMVSDTSCTFPSGDGIFWKHWIQTKDGQCGSPLVSTRDGFIVGIHSASNFTNTNNYFTSVPKNFMELLTNQEAQQWVSGWRLNADSVLWGGHKVFMVKPEEPFQPVKEATQL [T44A],0.0944,0.0902,0.104,0.0897,0.0673,0.0908,0.0809,,0.0897,0.0714,0.0822,0.089,,0.0928,0.101,0.148,0.0865,,
MGESLFKGPRDYNPISSSICHLTNESDGHTTSLYGIGFGPFIITNKHLFRRNNGTLVVQSLHGVFKVKDTTTLQQHLVDGRDMIIIRMPKDFPPFPQKLKFREPQREERICLVTTNFQTKSMSSMVSDTSCTFPSGDGIFWKHWIQTKDGQLGSPLVSTRDGFIVGIHSASNFTNTNNYFTSVPKNFMELLTNQEAQQWVSGWRLNADSVLWGGHKVFMVKPEEPFQPVKEATQL [C152L],0.0491,0.0548,0.071,0.0754,,,0.0509,,0.0748,0.0582,0.0616,0.0652,0.055,0.0824,0.0698,,0.0487,0.0634,
MGESLFKGPRDYNPITSSICHLTNESDGHTTSLYGIGFGPFIITNKHLFRRNNGTLVVQSLHGVFKVKDTTTLQQHLVDGRDMIIIRMPKDFPPFPQKLKFREPQREERICLVTTNFQTKSMSSMVSDTSCTFPSGDGIFWKHWIQTKDGQCGSPLVSTRDGFIVGIHSASNFTNTNNYFTSVPKNFMELLTNQEAQQWVSGWRLNADSVLWGGHKVFMVKPEEPFQPVKEATQL [S16T],0.0885,0.0901,0.148,0.105,,0.101,0.0931,0.101,,0.0862,0.0938,0.0911,,0.144,0.0917,0.135,0.137,0.119,0.0918
MGESLFKGPRDYNPIQSSICHLTNESDGHTTSLYGIGFGPFIITNKHLFRRNNGTLVVQSLHGVFKVKDTTTLQQHLVDGRDMIIIRMPKDFPPFPQKLKFREPQREERICLVTTNFQTKSMSSMVSDTSCTFPSGDGIFWKHWIQTKDGQCGSPLVSTRDGFIVGIHSASNFTNTNNYFTSVPKNFMELLTNQEAQQWVSGWRLNADSVLWGGHKVFMVKPEEPFQPVKEATQL [S16Q],0.0975,0.124,0.172,0.133,0.109,,0.104,0.0975,0.122,0.105,0.0987,0.106,0.15,0.112,0.131,0.14,0.115,0.113,0.109
MGESLFKGPRDYNPISSSICHLTNESDGHTTSLYGIGFGPFIITNKHLFRRNNGTLVVQSLHGVFKVKDTTVLQQHLVDGRDMIIIRMPKDFPPFPQKLKFREPQREERICLVTTNFQTKSMSSMVSDTSCTFPSGDGIFWKHWIQTKDGQCGSPLVSTRDGFIVGIHSASNFTNTNNYFTSVPKNFMELLTNQEAQQWVSGWRLNADSVLWGGHKVFMVKPEEPFQPVKEATQL [T72V],0.068,0.12,0.115,0.0605,,0.095,,,0.107,0.0851,0.0744,0.0753,0.106,0.0765,0.136,0.113,,0.0878,0.144
